Data as given in PubChem BioAssay AID445 (National Center for Advancing Translational Sciences (NCATS), 2006).
Screen size: about 110,000 compounds; about 40 (0.04%) were called active. Inconclusive results, whose numbers are uncertain, are shown with a selection of clear calls. Calls follow the shape of the dose curve; as a rule, active = well fitted curve in the direction sought with a large enough effect in the signal ratio (not every such curve was filed as active); inconclusive = small, poorly fitted or top-dose-only effect, or a change in a side signal; inactive = flat fitted curve, though single readings scatter; the % refers to the signal ratio.

Experiment: IkB Signaling;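 also: 0% = basal untreated cells and 100% = reference inhibitor full response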
Details: ABC-DLBCL IkBa-CBG/CBR dual luciferase ratio (green luciferase fused to IkBa over red control in OCI-Ly3 lymphoma cells), 4 h; IkBa stabilization activation: at 57.1 µM (top of the series), scaled: untreated 0%, proteasome inhibitor 100% unless noted
Outline: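 Luminescence ratio of IκBα-fused green versus native red beetle luciferase in OCI-Ly3 cells, 4 h post-doxycycline with compound; red signal alone, scaled from basal (0%) to zero light (-100%), flagged nonspecific or cytotoxic effects.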
For CCC(CC)C(=O)N1c2ccccc2C(C)(c2ccccc2)CC1(C)C (stereo not drawn), the IkBa stabilization activation was inconclusive: 11.1% [signal inhibitor]. For COC(=O)CN1C(=O)CSc2ccc(S(=O)(=O)Nc3ccc(F)c(Cl)c3)cc21, the IkBa stabilization activation was inconclusive: 1.27% [signal inhibitor]. With CC(=O)N1CCc2c(sc3c2c(=O)n(Cc2ccccc2)c(=O)n3Cc2ccc(Cl)cc2)C1 the IkBa stabilization activation was inconclusive: 3.05% [signal inhibitor]. In the case of CSCCC(NS(=O)(=O)c1ccc2c(c1)oc(=O)n2C)C(=O)Nc1ccc(F)c(Cl)c1 (stereo not drawn), the IkBa stabilization activation is reported as inconclusive: 16.1% [signal inhibitor]. For COc1ccc(NC(=O)c2c(NCc3cccc(F)c3)sc3c2CCC3)c(OC)c1, the IkBa stabilization activation was inconclusive: 1.06% [signal inhibitor]. For CCCCOc1ccc(C2=NC(c3cccs3)=Nc3ccc(OC)cc3N2)cc1, the IkBa stabilization activation was inconclusive: -2.7% [signal inhibitor]. For COc1ccc(OC)c(CNC(=O)c2c(C)oc3ncn(CC(C)C)c(=O)c23)c1, the IkBa stabilization activation was inconclusive: -0.441% [signal inhibitor]. In the case of Cc1nn(C)c(C)c1S(=O)(=O)N(CC(=O)NCCc1ccc(Cl)cc1)c1ccc(C(C)C)cc1, the IkBa stabilization activation is reported as inconclusive: 1.81% [signal inhibitor]. With COc1cccc2sc(N(Cc3cccnc3)C(=O)c3ccco3)nc12 the IkBa stabilization activation was inconclusive: 11.3% [signal inhibitor]. In the case of COc1ccc2cccc(N3CCN(CCNC(=O)c4ccc(F)cc4)CC3)c2c1, the IkBa stabilization activation is reported as inconclusive: -0.247% [signal inhibitor]. With CC1Cc2ccccc2N1C(=O)C1CCCN(S(=O)(=O)c2cccc3nsnc23)C1 (stereo not drawn) the IkBa stabilization activation was inconclusive: 1.44% [signal inhibitor]. With COc1ccc(C)cc1NC(=O)C(=O)NCCc1sc(-c2cccc(C)c2)nc1C the “IkBa stabilization activation” value was inactive: -0.998%. With Cc1cc(C)cc(NC(=O)Cc2csc(COc3cccc(C)c3)n2)c1 the “IkBa stabilization activation” value was inactive: 1.42%. For Cc1ccccc1C(=O)Nc1ccc(S(=O)(=O)N2CCC(c3nc4ccccc4s3)CC2)cc1, the IkBa stabilization activation was inconclusive: 2.18% [signal inhibitor]. With CCC(Oc1ccccc1)C(=O)Nc1cccc(OCc2cc(=O)n3cccc(C)c3n2)c1 (stereo not drawn) the IkBa stabilization activation was inconclusive: 1.8% [signal inhibitor]. In the case of CCOC(=O)c1c(C)oc(NC(=O)COc2ccc(Cl)cc2C)c1C#N, the IkBa stabilization activation is reported as inconclusive: 2.39% [signal inhibitor]. For Cc1ccc(CSc2nnc([C@@H](N)C(C)C)o2)cc1, the “IkBa stabilization activation” value was inactive: 0.245%. With CCOC(=O)c1ccc2c(c1)nc(SC/C(O)=C(\C#N)c1nc3ccccc3[nH]1)n2CC the IkBa stabilization activation was inconclusive: 3.79% [signal inhibitor].
